Source: PubChem BioAssay AID504832 (National Center for Advancing Translational Sciences (NCATS), 2011)
Screen size: about 310,000 compounds; about 18,000 (5.8%) were called active. This list was built around the results that the source calls inconclusive (neither active nor inactive); the mix of calls is not that of the screen. Calls follow the shape of the dose curve; as a rule, active = well fitted inhibition curve with a large enough effect; inconclusive = small, poorly fitted or top-dose-only effect, or another doubt; inactive = no such curve, though single readings can be large or run the other way. No potency is given beside an inconclusive call; the fits are too rough.
% is scaled to controls: 0 for no effect and ±100 for the full control effect; potency is read from the fitted curve at half-maximal effect; tags tell the direction and shape of the fitted curve.

Assay: Primary qHTS for delayed death inhibitors of the malarial parasite plastid, 48 hour incubation
Conditions: P. falciparum luciferase growth in erythrocytes; series mostly up to 28.7 µM; activity change, negative = inhibition: at the top concentration
In short: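 Here the parasites carry a stable luciferase gene and grow inside erythrocytes in Albumax-based RPMI medium with compound for one erythrocytic cycle. Activity is scored as loss of luminescent signal.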
With `O=C(O)c1cccc(NC(=S)N/N=C/c2ccccn2)c1` the “activity change, negative = inhibition” value was inactive: 149%. In the case of `Cc1ccc(C(C)C)c(OCc2ccc(C(=O)N/N=C/c3ccc(C(=O)O)cc3)cc2)c1`, the Potency is reported as inconclusive [inhibitor, partial curve]. With `COCCNC(=O)CCCCCNS(=O)(=O)c1ccc(C)cc1` the “activity change, negative = inhibition” value was inactive: 1.68%. For `COC(=O)/C=C/c1ccc2c(c1)OCO2`, the Potency was inconclusive [inhibitor, single point]. For `CNC(=S)SCCOc1ccccc1C`, the “activity change, negative = inhibition” value was inactive: 13.3%. For `O=C(Nc1cccc(S(=O)(=O)N2CCOCC2)c1)C1=NN(c2ccccc2)C(=O)CC1`, the Potency was inconclusive [inhibitor, full curve]. In the case of `O=C(c1ccc2c(=O)n3c(nc2c1)CCC3)N1CCN(S(=O)(=O)c2cccc(F)c2)CC1`, the Potency is reported as active: 11.7 µM. For `CCOc1cc(CN2CCN(c3ncccn3)CC2)ccc1OC`, the Potency was inconclusive [inhibitor, full curve, poor fit]. In the case of `CC(C)(C)C(=O)/C=c1\[nH]c(=O)/c(=C\c2ccc(F)cc2)s1`, the Potency is reported as inconclusive [inhibitor, single point]. With `COc1ccc(C)cc1S(=O)(=O)N(CC(=O)N1CCOCC1)Cc1ccccc1` the “activity change, negative = inhibition” value was inactive: -10.5%. For `Cn1cc(C(=O)NCCN2CCN(c3cccc(Cl)c3)CC2)c2c3ccccc3n(C)c2c1=O`, the Potency was active: 1.04 µM. In the case of `O=C(NCc1cccnc1)c1nn2cccnc2c1Cl`, the Potency is reported as inconclusive [inhibitor, full curve, poor fit]. With `COc1ccc(C(C)(C)NC(=O)C2CCC(=O)N(CCCN3CCCC3=O)C2)cc1` (stereo not given) the Potency was inconclusive [inhibitor, partial curve, poor fit]. In the case of `C=CC1=C(C(=O)O)N2C(=O)[C@@H](NC(=O)C(N=O)c3csc(N)n3)[C@H]2SC1` (stereo not given in full), the “activity change, negative = inhibition” value is reported as inactive: -10.7%. For `CCNC(=O)c1ccccc1NC(=O)C1CC(=O)N(C(C)C)C1` (stereo not given), the “activity change, negative = inhibition” value was inactive: -24.5%. For `COc1ccc(CNC(=O)c2cc3c(=O)n4ccccc4nc3n(Cc3cccnc3)c2=N)cc1`, the Potency was inconclusive [inhibitor, partial curve, poor fit]. In the case of `O=C(NCCSC1CCCCC1)c1ccccc1`, the Potency is reported as inconclusive [inhibitor, single point]. With `CC(=O)c1ccc(S(=O)(=O)NC2CC(=O)N(c3ccc(Cl)cc3)C2)cc1` (stereo not given) the “activity change, negative = inhibition” value was inactive: -20.8%. With `CN(C(=O)CNC(=O)OCc1ccccc1)c1ccc(Br)cc1C(=O)c1ccccc1Cl` the Potency was inconclusive [inhibitor, single point]. For `CC(=O)Nc1sc(NC(=O)c2ccccc2)nc1-c1cccs1`, the “activity change, negative = inhibition” value was inactive: -2.87%. With `CC1CCCC(NC(=O)c2nn(C)c3c2CS(=O)(=O)c2ccccc2-3)C1C` (stereo not given) the “activity change, negative = inhibition” value was inactive: -3.2%. In the case of `COc1cccc(-c2cc(C(=O)Nc3ccn(Cc4ccc(C)cc4)n3)no2)c1`, the Potency is reported as inconclusive [inhibitor, single point]. With `CC(=O)Nc1cccc(OCCCNC(=O)C2CCC2)c1` the “activity change, negative = inhibition” value was inactive: -16.7%. In the case of `O=c1c2ccccc2nc(SCc2cn3ccsc3n2)n1-c1ccccc1`, the Potency is reported as inconclusive [inhibitor, single point]. With `CC12CCC(=O)N1C(C(=O)Nc1cccc(F)c1)CS2` (stereo not given) the “activity change, negative = inhibition” value was inactive: -3.32%. In the case of `CCc1cc(SC#N)ccc1N`, the Potency is reported as inconclusive [inhibitor, single point]. With `CC(=O)N1CCc2cc(S(=O)(=O)NCCC(=O)N3CCN(c4ccccn4)CC3)ccc21` the Potency was inconclusive [inhibitor, full curve]. With `COc1ccc(C(=O)c2cn[nH]c2-c2ccc(C)cc2O)cc1` the “activity change, negative = inhibition” value was inactive: -13.2%. In the case of `CCC1CN(C(=O)N2CCC(C(=O)NCCc3ccccc3OC)CC2)c2ccccc2O1` (stereo not given), the Potency is reported as inconclusive [inhibitor, partial curve]. With `COc1c(N2CCN[C@H](C)C2)c(F)cc2c(=O)c(C(=O)O)cn(C3CC3)c12` the Potency was inconclusive [inhibitor, full curve, poor fit]. With `Cc1cc(C(=O)COC(=O)CN(C)S(=O)(=O)c2ccc(Cl)cc2)c(C)n1Cc1cccs1` the “activity change, negative = inhibition” value was inactive: -15.7%. For `O=C(NNC(=O)C12CC3CC(CC(C3)C1)C2)c1ccccc1O`, the Potency was inconclusive [inhibitor, single point]. In the case of `CC1(C)C2CCC(C2)C1(C)NC(=O)CNCc1cccs1` (stereo not given), the “activity change, negative = inhibition” value is reported as inactive: -7.52%. For `CN(C)/C=C/C(=O)c1cccc(Oc2ncccn2)c1`, the “activity change, negative = inhibition” value was inactive: 7.92%. For `O=C(COC(=O)/C=C/C(=O)OCC(=O)Nc1ccccc1F)Nc1ccccc1F`, the Potency was inconclusive [inhibitor, single point]. With `CCn1c(CNc2ccc(OC)cc2)nnc1SCC(=O)Nc1ccc(F)cc1` the Potency was inconclusive [inhibitor, single point]. With `CCCSc1nnc(NC(=O)Nc2ccc(C)cc2)s1` the “activity change, negative = inhibition” value was inactive: 25.6%. With `Cc1cccc(CN2CCN(C(=O)Cc3ccccc3)CC2)c1` the Potency was inconclusive [inhibitor, single point]. With `NC(=O)CSc1nnc(Cc2csc(Nc3ccccc3)n2)n1Cc1ccccc1` the Potency was inconclusive [inhibitor, single point]. For `COC(=O)c1cc(=O)n(Cc2ccco2)c(=Nc2ccc(F)cc2)s1`, the Potency was inconclusive [inhibitor, partial curve, poor fit]. For `CC(C)C(NC(=O)Nc1ccccc1)C(=O)Nc1cccc(S(=O)(=O)N(C)C)c1` (stereo not given), the Potency was inconclusive [inhibitor, partial curve, poor fit]. With `CC(C)Cn1c2c(c(=O)[nH]c1=O)C(C(F)(F)F)(C(F)(F)F)N=C(CCC1CCCCC1)N2` the Potency was active: 9.28 µM. With `O=C(Cc1ccccc1)N1CCN(c2ccc([N+](=O)[O-])cc2)CC1` the “activity change, negative = inhibition” value was inactive: -8.6%. In the case of `Cc1ccc(Cl)cc1NC1=NC(=S)N(C(C)C)C12CCCCC2`, the Potency is reported as inconclusive [inhibitor, partial curve, poor fit]. In the case of `Cc1cc(OCC(=O)NCC2CCC(C(=O)O)CC2)c2c(C)c(C)c(=O)oc2c1` (stereo not given), the “activity change, negative = inhibition” value is reported as inactive: -0.319%. In the case of `COc1ccccc1N1CCN(S(=O)(=O)c2cc(C(F)(F)F)cc(C(F)(F)F)c2)CC1`, the Potency is reported as active: 6.57 µM. For `CCOC(=O)c1ccc2c(c1)nc(C1CCN(S(=O)(=O)c3cccs3)CC1)n2CC`, the Potency was active: 10.4 µM. For `CCOc1cc(C2C3=C(CCCC3=O)N(CC(=O)O)C3=C2C(=O)CCC3)ccc1OC`, the “activity change, negative = inhibition” value was inactive: -4.91%. In the case of `Cc1ccc(S(=O)(=O)N2CCCCC2)cc1NC(=O)c1c(-c2ccccc2)noc1C`, the Potency is reported as inconclusive [inhibitor, single point]. With `CCN(CC)C(=O)Cn1cc(/C=C(\C#N)C(=O)N2CCN(c3ccccc3)CC2)c2ccccc21` the Potency was inconclusive [inhibitor, single point]. In the case of `O=C(NCc1ccccn1)c1ccc(OC2CCN(Cc3ccc(CO)o3)CC2)cc1`, the “activity change, negative = inhibition” value is reported as inactive: 30%. With `COc1ccccc1Nc1ccc(C(=O)NCc2cccs2)cn1` the “activity change, negative = inhibition” value was inactive: -6.69%. With `Cc1cc(O)ccc1N/C=C(\C#N)c1nc2ccccc2o1` the “activity change, negative = inhibition” value was inactive: -9.51%. For `CCN(Cc1ccccc1)C(c1cccs1)c1nnnn1C1CCCCC1` (stereo not given), the Potency was active: 9.28 µM. With `CCOC(=O)C1=C(C)N(CC(C)C)C(=O)/C1=C\c1ccc(OCC(=O)Nc2ccccc2)cc1` the Potency was inconclusive [inhibitor, full curve, poor fit]. With `O=C(CCCCn1c(=O)c2ccccc2n(CC(=O)Nc2ccc(F)cc2)c1=O)NCc1ccco1` the Potency was active: 11.7 µM. With `COc1ccc(Cc2nnc(N/N=C(\C)c3ccccc3)[nH]c2=O)cc1OC` the Potency was inconclusive [inhibitor, full curve, poor fit]. For `COc1ccc(NC(=O)c2ccc(Cl)c(S(=O)(=O)N3CC(C)OC(C)C3)c2)cn1` (stereo not given), the Potency was active: 8.28 µM. In the case of `CCc1ccc(N(C(=O)c2snc(C(N)=O)c2N)C(C(=O)NCCC(C)C)c2c[nH]c3ccccc23)cc1` (stereo not given), the Potency is reported as inconclusive [inhibitor, partial curve]. With `Cc1ccc2c(c1)nnn2C1CCN(CC(=O)N2c3ccccc3CC2C)CC1` (stereo not given) the Potency was inconclusive [inhibitor, partial curve, poor fit]. In the case of `O=C(CN1CCCc2ccccc21)NC(=O)NCc1ccco1`, the “activity change, negative = inhibition” value is reported as inactive: 0%. For `OCCOCCN1CCN(C(c2ccccc2)c2ccc(Cl)cc2)CC1` (stereo not given), the Potency was inconclusive [inhibitor, single point]. With `Cc1ccc(SCc2[nH]nc3c2C2(C(=O)Nc4ccc([N+](=O)[O-])cc42)C(C#N)=C(N)O3)cc1` (stereo not given) the Potency was inconclusive [inhibitor, full curve, poor fit]. For `COc1ccccc1P(=O)(c1ccccc1)c1ccccc1`, the Potency was inconclusive [inhibitor, partial curve]. For `CC(=O)c1ccc(C(=O)N2CCc3c([nH]c4ccccc34)C2c2cccc(C)n2)s1` (stereo not given), the Potency was inconclusive [inhibitor, partial curve, poor fit]. For `O=C(c1cc2cc(Cl)ccc2[nH]1)N1CCc2ccccc2C1`, the Potency was inconclusive [inhibitor, single point]. With `C[C@]12CCC(=O)C[C@@H]1CC[C@@H]1[C@@H]2CC[C@]2(C)C=CC[C@@H]12` the Potency was inconclusive [inhibitor, partial curve, poor fit]. In the case of `CC(C)[C@@H](C(=O)NCc1ccco1)N1C(=O)N2CCc3c([nH]c4ccccc34)[C@@]2(C)C1=O`, the Potency is reported as inconclusive [inhibitor, single point]. With `CCN(CC)S(=O)(=O)c1ccc(N2CCc3cc(OC)c(OC)cc3C2)nc1` the Potency was inconclusive [inhibitor, single point]. For `Cc1nc(Nc2ccc(S(=O)(=O)N3CCCCC3C)cc2)c2nnn(Cc3ccccc3)c2n1` (stereo not given), the Potency was inconclusive [inhibitor, partial curve, poor fit].
